# Reference: the GPR68 mutational scans of Howard et al. (2025)
# Scores with a large standard error are left out. Not listed are two conditions whose scores span a narrow range. Names with del lack the residues named; names with ins carry added residues between the positions named. For part of these data: The data file names ogerin without a concentration.
# B1: GPR68, Q15743 (parent)
# chain: MGNITADNSSMSCTIDHTIHQTLAPVVYVTVLVVGFPANCLSLYFGYLQIKARNELGVYLCNLTVADLFYICSLPFWLQYVLQHDNWSHGDLSCQVCGILLYENIYISVGFLCCISVDRYLAVAHPFRFHQFRTLKAAVGVSVVIWAKELLTSIYFLMHEEVIEDENQHRVCFEHYPIQAWQRAINYYRFLVGFLFPICLLLASYQGILRAVRRSHGTQKSRKDQIQRLVLSTVVIFLACFLPYHVLLLVRSVWEASCDFAKGVFNAYHFSLLLTSFNCVADPVLYCFVSETTHRDLARLRGACLAFLTCSRTGRAREAYPLGAPEASGKSGAQGEEPELLTKLHPAFQTPNSPGSGGFPTGRLA
# Tests used:
# [1] = variants of: B1; assay: cAMP reporter score (Enrich2 score, wild type = 0); higher = more signal; HEK293T, FACS bins
# [2] = variants of: B1; assay: surface expression score (Enrich2 score, wild type = 0); higher = more signal; HEK293T, FACS bins
Variant,cAMP reporter score ([1]; pH 5.5),cAMP reporter score ([1]; pH 6),"cAMP reporter score ([1]; pH 6, modulator: ogerin)","cAMP reporter score ([1]; pH 6.5, modulator: ogerin)",surface expression score [2]
MGNITADNSSMSCTIDHTIHQTLAPVVYVTVLVVGFPANCLSLYFGYLQIKARNELGVYLCNLTVADLFYICSLPFWLQYVLQHDNWSHGDLSCQVCGILLYENIYISVGFLCCISVDRYLAVAHPFRFHQFRTLKAAVGVSVVIWAKELLTSIYFLMHEEVIEDENQHRVCFEHYPIQAWQRAINYYRFLVGFLFPICLLLASYQGILRAVRRSHGTQKSRKDQIQRLVLSTVVIFLACFLPYHVLLLVRSVWEASCDFAKGVFNAYHFSLLLTSFNCVADPVLYCFVSETTHRDLARLRGACLAFLTCSRTGRAREAYPLGAPEASGKSGAQGEEAELLTKLHPAFQTPNSPGSGGFPTGRLA [P338A],0.152,-0.119,-0.434,-0.418,0.513
MGNITADNSSMSCTIDHTIHQTLAPVVYVTVLVVGFPANCLSLYFGYLQIKARNELGVYLCNLTVADLFYICSLPFWLQYVLQHDNWSHGDLSCQVCGILLYENIYISVGFLCCISVDRYLAVAHPFRFHQFRTLKAAVGVSVVIWAKELLTSIYFLMHEEVIEDENQHRVCFEHYPIQAWQRAINYYRFLVGFLFPICLLLASYQGILRAVRRSHGTQKSRKDQIQRLVLSTVVIFLACFLPYHVLLLVRSVWEASCDFAKGVFNAYHFSLLLTSFNCVADPVLYCFVSETTHRDLARLRGACLAFLTCSRTGRAREAYPLGAPEASGKSGAQGEECELLTKLHPAFQTPNSPGSGGFPTGRLA [P338C],0.73,,0.197,0.213,0.731
